Measurements: PubChem BioAssay AID686979 (National Center for Advancing Translational Sciences (NCATS), 2013)
Where “and” joins values, the source holds several entries; their conditions need not be identical. Equal values may be shown once. Hit rate of the full screen: of about 420,000 compounds, about 50,000 (12%) were called active. Inconclusive results, whose numbers are uncertain, are shown with a selection of clear calls. Calls come from the whole dose curve; as a rule, active = well fitted inhibition curve with a large enough effect; inconclusive = small, poorly fitted or top-dose-only effect; inactive = flat fitted curve, though single readings scatter. Potencies of inconclusive entries are doubtful fits and often do not repeat.

test: qHTS for Inhibitors of human tyrosyl-DNA phosphodiesterase 1 (TDP1): qHTS in cells in presence of CPT; details: chicken DT40 Tdp1-/-;hTDP1 cells + 20 nM CPT, ATP luminescence, 48 h; activity change, negative = growth inhibition: at 46.2 µM (top of the series) unless noted; note: nearly all actives have a fitted effect of over 55% in size
Method in brief: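 Chicken DT40 Tdp1-/- cells stably complemented with human TDP1 were seeded at 400 cells/well in medium containing 20 nM camptothecin, exposed to pin-transferred compounds, and grown at 37 °C for at least 48 hr. Viability was read as ATP luminescence.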
% is set by controls: 0 for no effect and ±100 for the full control effect; potency is the fitted concentration of half-maximal effect; tags give direction and shape of the fitted curve.

SMILES | Potency | activity change, negative = growth inhibition
COc1cc(C#Cc2c(-c3cncn3C)n(C)c3ccc(-c4cnc(N5CCOCC5)nc4)cc23)cc(OC)c1 | active: 16.4 µM | –
CCOC(=O)c1ccc(N2C(=O)c3n[nH]c(-c4cccs4)c3C2c2ccc(Cl)cc2Cl)cc1 (centres undefined) | inconclusive: 29.1 µM [inhibitor, single point] | –
CCOc1cccc(C2NCc3ccccc3-n3cccc32)c1O (centres undefined) | inconclusive: 23.1 µM [inhibitor, single point] | –
CCOC(=O)[C@]12Cc3cc(C)ccc3[C@H]1N(C1CCCCC1)C(=O)c1ccccc12 | active: 2.31 µM | –
CCc1cc(OC)c(C[C@H](C)N)cc1OC | inconclusive: 63.5 µM [inhibitor, single point] | –
CCOC(=O)C1(c2ccccc2)CCN(CCC(=O)Nc2ccc(F)cc2)CC1 | inconclusive: 29.1 µM [inhibitor, single point] | –
COc1ccccc1CCNC1C2CC3CC(C2)CC1C3 (centres undefined) | – | inactive: -12.3%
c1ccc(N=Nc2ccccc2)cc1 | – | inactive: 13.1%
COCCCn1c(N)c(C(=O)OC(C)COC)c2nc3ccccc3nc21 (centres undefined) | – | inactive: -8.49%
CN(C(=O)Cc1ccc(Cl)c(Cl)c1)C(CN1CCCC1)c1cccc(OCC(=O)O)c1 (centres undefined) | inactive | –
CCSP1(=S)N=C(N2CCOCC2)C(C#N)=C2CCCN21 (centres undefined) | – | inactive: -3.58%
COc1ccc(CCn2c(O)c(C=NCCCn3ccnc3)c(=O)[nH]c2=O)cc1OC | – | inactive: 20.8%
O=C1NC(=O)N(c2ccccc2)C(=O)/C1=C/c1ccoc1 | inconclusive: 13 µM [inhibitor, partial curve] | –
Cc1cccc(C(O)c2ncc(-c3ccccc3Cl)[nH]2)c1C (centres undefined) | inconclusive: 8.2 µM [inhibitor, partial curve] | –
CC(C)COC(=O)n1c(=O)oc2ccc(S(=O)(=O)N3CCCCC3)cc21 | inconclusive: 23.1 µM [inhibitor, single point] | –
CCC1CN1P(=S)(N1CC1CC)N1CC1CC (centres undefined) | inconclusive: 29.1 µM [inhibitor, single point] | –
Cc1ccc(C(C)C)c(OCC(=O)N2CCN(CCc3ccncc3)CC2)c1 | inconclusive: 23.1 µM [inhibitor, single point] | –
COc1cccc(/C=C2\N=C(c3cncc(Br)c3)OC2=O)c1 | inconclusive: 29.1 µM [inhibitor, single point] | –
c1ccc(CCNc2nc(-c3ccccc3)cs2)cc1 | inconclusive: 13.3 µM [inhibitor, partial curve] | –
C/C(=N\NC(N)=O)c1c(O)n(C)c(=O)n(C)c1=O | inconclusive: 16.4 µM [inhibitor, single point] | –
Cn1c(O)c(C2=NNC(c3ccc(Cl)cc3)C2)c(=O)n(C)c1=O (centres undefined) | active: 25.9 µM | –
COc1nc2ccccc2c(=O)n1-c1ccc(Cl)cc1 | inconclusive: 20.6 µM [inhibitor, single point] | –

SMILES | Potency | activity change, negative = growth inhibition
COc1ccccc1NC(=O)COC(=O)c1cn(C)c2ccccc12 | inconclusive: 29.1 µM [inhibitor, single point] | –
CCCCOP(=O)(c1ccc(N(C)C)cc1)C(O)c1ccc(C(C)C)cc1 (centres undefined) | inconclusive: 23.1 µM [inhibitor, partial curve, poor fit] | –
c1ccc(OCc2ccc(CCCN3CCOCC3)cc2)cc1 | inconclusive: 33.5 µM [inhibitor, single point] and inconclusive: 29.1 µM [inhibitor, single point] | –
Cc1ccc(S(=O)(=O)Nc2ccc3c(c2)CC(=O)N([C@H](C)CO)C[C@@H](C)[C@H](CN(C)S(=O)(=O)c2ccccc2)O3)cc1 | inconclusive: 10.3 µM [inhibitor, partial curve] | –
CC(C)(C)C(=O)O[C@H]1CC[C@@]2(C)C(=CC(=O)C3C2CC[C@]2(C)C(=O)[C@@H](F)CC32)C1 (some centres undefined) | inconclusive: 29.1 µM [inhibitor, single point] | –
O=C(CSc1nnc2c3c4c(sc3ncn12)CCCC4)NCc1ccco1 | inconclusive: 14.6 µM [inhibitor, partial curve] | –
O=C(NC1CCCCC1)N1Cc2cc(N3CCCCC3)ccc2-n2nncc2C1 | inconclusive: 18.4 µM [inhibitor, single point] | –
COc1cccc(C(O)c2nc(-c3ccncc3)cs2)c1 (centres undefined) | active: 23.1 µM | –
COc1ccc(C(=O)C2CCCN(CC3CCCCC3)C2)cc1OC (centres undefined) | inconclusive: 29.1 µM [inhibitor, single point] | –
O=C1NC(=O)C(C/C=C/c2ccccc2)C(=O)N1 | – | inactive: -18.8%
CCOc1cc(/C=N/NC(=O)c2cccs2)ccc1OC(=O)N1CCOCC1 | inconclusive: 29.1 µM [inhibitor, single point] | –
c1ccc(CCN2CCOCC2)cc1 | – | inactive: -13.9%
CN1C(=O)/C(=C\c2ccc(N3CCCCCC3)cc2)C(=O)NC1=S | inconclusive: 16.4 µM [inhibitor, single point] | –
CCC(=NCc1ccco1)c1c(O)n(-c2ccc(Cl)cc2)c(=O)[nH]c1=O | – | inactive: -3.02%
N[C@@]1(C(=O)O)CC[C@@H](C(=O)O)C1 | inconclusive: 29.1 µM [inhibitor, single point] | –
Cn1cc(C(=O)C(=O)N[C@H]2CN3CCC2CC3)c2ccccc21 | – | inactive: -10.1%
COc1ccccc1N1CCN(S(=O)(=O)CCNC(=O)CCCc2ccccc2)CC1 | inconclusive: 23.1 µM [inhibitor, single point] | –
C[C@@H]1OC(=O)[C@H]2C[C@H]3CCCC[C@@H]3[C@@H](/C=C/[C@H]3CCC[C@H](C)N3C)[C@@H]12 | – | inactive: -6.11%
CC1CN(CC(=O)c2ccccc2Cl)CC(C)O1 (centres undefined) | inconclusive: 18.4 µM [inhibitor, single point] | –
Nc1c2c(nc3sc4c(c13)CCCC4)CCCC2 | inconclusive: 25.9 µM [inhibitor, single point] | –
CCc1cc(-c2cnnn2Cc2ccc3ccccc3c2)ccc1-c1cn(CC(C)C)nn1 | active: 25.9 µM | –
CN1CN(c2ccccc2)C2(CCN(CCCSc3ccccc3NC(=O)/C=C/c3ccccc3)CC2)C1=O | inconclusive: 18.4 µM [inhibitor, single point] | –
